In the RNAGym collection of RNA variant scans (doi:10.7554/elife.90254):
Read counts are not given, so values of variants with three or more changes are uncertain.

B1: OR4K15 (parent)
chain: GUUAACGGUCAUAGGCCAUGGAAACUAGGAGCACCAUUUCGCUGCCAGUGAAGAAAUGAACAAAGAAAAUCUGGGCCAGGCAGGCAUCAAAAGAAAUAGUCUUGCGCUCAACCAGAAAGUCUGUAAUCAUUUUAAGGGUA

Variants of: B1
Assay: self-cleavage, relative activity (ratio to wild type); higher = more cleavage; in vitro, sequencing; the parent is a self-cleaving ribozyme

Variant	self-cleavage
GUUAACGGUCAUAGGCCAUGGAAACUAGGAGCACCAUCUCGCUGCCAGUGAAGAAAUGAACAAAGAGAAUCUGGGCCAGGCAGGCAUCAAAAGACAUAGUCUUGCGCUCAACCAGAAAGUCUGUAAUCAUUUUAAGGGGA	0.49
GUUAACGGUCAUAGGCCAUGGAAACUAGGAGCACCAUCUCGCUGCCAGUGAAGAAAUGAACAAAGAGAAUCUGGGCCAGGCAGGCAUCAAAAGAAAUAGUCUUGCGCUCAACCAGAAAGUCUGUAAUCACUUUAAGGGUA	0.72
GUUAACGGUCAUAGGCCAUGGAAACUAGGAGCACCAUCUCGCUGCCAGUGAAGAAAUGAACAAAGAAGAUCUGGGCCAGGCAGGCAUCAAAAGAAAUAGUCUUGCGCUCAACCAGAAAGUCUGUAAUUAUUUUAAGGGUA	0.9
GUUAACGGUCAUAGGCCAUGGAAACUAGGAGCACCAUCUCGCUGCCAGUGAAGAAAUGAACAAAGAAGAUCUGGGCCAGGCAGGCAUCAAAAGAAAUAGUCUUGCGCUCAACCAGAAAGUCUGUAAUCAUUUUAAGGGCA	1.26
GUUAACGGUCAUAGGCCAUGGAAACUAGGAGCACCAUCUCGCUGCCAGUGAAGAAAUGAACAAAGAAAAUCUGGGCCUGGCAGGCAUCAAAUGAAAUAGUCUUGCGCUCAACCAGAAAGUCUGUAAUCAUUUUAAGGGCU	0.32
GUUAACGGUCAUAGGCCAUGGAAACUAGGAGCACCAUCUCGCUGCCAGUGAAGAAAUGAACAAAGAAAAUCUGGGCCAGGCCGGCAUCAAAAGAAAUGGUCUUGCGCUCAACCAGAAAGUCUGUAAUCAUUUUAAGGGUA	0.06
GUUAACGGUCAUAGGCCAUGGAAACUAGGAGCACCAUCUCGCUGCCAGUGAAGAAAUGAACAAAGAAAAUCUGGGCCAGGCGGGCAUCAAAAGAAAUAGUCUUGCGCUCAGCCAGAAAGUCUGUAAUCAUUUUAAGGGUA	0.01
GUUAACGGUCAUAGGCCAUGGAAACUAGGAGCACCAUCUCGCUGCCAGUGAAGAAAUGAACAAAGAAAAUCUGGGCCAGGCGGGCAUCAAAAGAAAUAGUCUUGCGCCCAACCAGAAAGUCUGUAAUCAUUUUAAGGGUA	0.02
GUUAACGGUCAUAGGCCAUGGAAACUAGGAGCACCAUCUCGCUGCCAGUGAAGAAAUGAACAAAGAAAAUCUGGGCCAGGCUGGCAUCAAAAGAAAUAGUCUUGCGCUCAACCAGAAAGUCUGUGAUCAUUUUAAGGGUA	0.02
GUUAACGGUCAUAGGCCAUGGAAACUAGGAGCACCAUCUCGCUGCCAGUGAAGAAAUGAACAAAGAAAAUCUGGGCCAGGCAGGCGUCAAAAGAAAUAGUCUUGCGCUCAACCAGAAAGUCUGUAAUCAUUUUAAGGGUG	1.69
GUUAACGGUCAUAGGCCAUGGAAACUAGGAGCACCAUCUCGCUGCCAGUGAAGAAAUGAACAAAGAAAAUCUGGGCCAGGCAGGCUUCAAAAGAAAUAGUCUUGCGCUCAGCCAGAAAGUCUGUAAUCAUUUUAAGGGUA	0
GUUAACGGUCAUAGGCCAUGGAAACUAGGAGCACCAUCUCGCUGCCAGUGAAGAAAUGAACAAAGAAAAUCUGGGCCAGGCAGGCAUCGAGAGAAAUAGUCUUGCGCUCAACCAGAAAGUCUGUAAUCAUUUUAAGGGUA	1.22
GUUAACGGUCAUAGGCCAUGGAAACUAGGAGCACCAUCUCGCUGCCAGUGAAGAAAUGAACAAAGAAAAUCUGGGCCAGGCAGGCAUCGAAAGAAAUAGUCUUGCGCUCAACCAGAAAGUCUGUGAUCAUUUUAAGGGUA	0.51
GUUAACGGUCAUAGGCCAUGGAAACUAGGAGCACCAUCUCGCUGCCAGUGAAGAAAUGAACAAAGAAAAUCUGGGCCAGGCAGGCAUCAUAAGAAGUAGUCUUGCGCUCAACCAGAAAGUCUGUAAUCAUUUUAAGGGUA	2.44
GUUAACGGUCAUAGGCCAUGGAAACUAGGAGCACCAUCUCGCUGCCAGUGAAGAAAUGAACAAAGAAAAUCUGGGCCAGGCAGGCAUCAAGAGAAUUAGUCUUGCGCUCAACCAGAAAGUCUGUAAUCGUUUUAAGGGUA	0.78
GUUAACGGUCAUAGGCCAUGGAAACUAGGAGCACCAUCUCGCUGCCAGUGAAGAAAUGAACAAAGAAAAUCUGGGCCAGGCAGGCAUCAAAUGAAAUAGUCUUGCGCUCAACCAGAAAGACUGUAAUCAUUUUAAGGGUA	1.3
GUUAACGGUCAUAGGCCAUGGAAACUAGGAGCACCAUCUCGCUGCCAGUGAAGAAAUGAACAAAGAAAAUCUGGGCCAGGCAGGCAUCAAAAGCAAUAGUCUUGCGCUCGACCAGAAAGUCUGUAAUCAUUUUAAGGGCA	0.09
GUUAACGGUCAUAGGCCAUGGAAACUAGGAGCACCAUCUCGCUGCCAGUGAAGAAAUGAACAAAGAAAAUCUGGGCCAGGCAGGCAUCAAAAGAGAUAGUCUUGCGCUCAACCAGAAAGUCUGUGAUCAUUUUAAGGGUA	0.5
GUUAACGGUCAUAGGCCAUGGAAACUAGGAGCACCAUCUCGCUGCCAGUGAAGAAAUGAACAAAGAAAAUCUGGGCCAGGCAGGCAUCAAAAGAAAUUGUCUUGCGCUCAACCAGGAAGUCUGUAAUCAUUCUAAGGGUA	0.89
GUUAACGGUCAUAGGCCAUGGAAACUAGGAGCACCAUCUCGCUGCCAGUGAAGAAAUGAACAAAGAAAAUCUGGGCCAGGCAGGCAUCAAAAGAAAUAGUCUUGCGCUCGGCCAGAAAGUCUGUAAUCAUUCUAAGGGUA	0.01
GUUAACGGUCAUAGGCCAUGGAAACUAGGAGCACCAUCUCGCUGCCAGUGAAGAAAUGAACAAAGAAAAUCUGGGCCAGGCAGGCAUCAAAAGAAAUAGUCUUGCGCUCAACCGGAAGGUCUGUAAUCAUUUUAGGGGUA	0.53
